Experimental data from the supplement of paper PMC4967469.

Columns and labels:
Assay in all cases: Viability of human cancer cell lines after 72 h of drug (GDSC screen)
[1] = compound: CCN1CCN(Cc2ccc(NC(=O)c3ccc(C)c(/C=C/c4cnc5[nH]ccc5c4OC)c3)cc2C(F)(F)F)CC1 [HG-6-64-1]; conditions: top dose 5.12 µM; top dose inferred
Experimental: (§1)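 Human cancer cell lines in 384-well plates, medium with 10% serum, drug for 72 h over a 256-fold dose range (nine 2-fold or five 4-fold steps up to the top dose). Adherent lines were fixed and stained with the nucleic acid dye Syto60, suspension lines read with resazurin; signal relative to control wells, capped at 0 and 100%. One two-parameter sigmoid per drug and line, fitted in a mixed model over all curves with the slope shared within a line.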

[2] = compound: O=C(NC(COc1ccc2[nH]c(=O)[nH]c2c1)c1ccccc1)c1cccn(Cc2ccc(F)c(F)c2)c1=O [KIN001-244]; conditions: top dose 20 µM; top dose inferred
Experimental: as §1

[3] = compound: COc1cc2nccc(Oc3ccc(NC(=O)Nc4cc(C)on4)c(Cl)c3)c2cc1OC [AV-951]; conditions: top dose 0.128 µM; top dose inferred
Experimental: as §1

[4] = compound: CCNC(=O)C[C@@H]1N=C(c2ccc(Cl)cc2)c2cc(OC)ccc2-n2c(C)nnc21 [I-BET-762]; conditions: top dose 20 µM; top dose inferred
Experimental: as §1

[5] = compound: CCc1cncnc1N1CCN(Cc2nc3ccc(C(F)(F)F)cc3[nH]2)CC1 [PF-4708671]; conditions: top dose 10 µM; top dose inferred
Experimental: as §1

Row | Cell Line | AUC [1] | IC50 [1] [nM] | AUC [2] | IC50 [2] [µM] | AUC [3] | IC50 [3] [nM] | AUC [4] | IC50 [4] [µM] | AUC [5] | IC50 [5] [µM]
1 | 201T (lung adenocarcinoma, adherent) | 0.697 | 1330 | 0.909 | > 20 | 0.96 | > 128 | 0.917 | > 20 | 0.956 | > 10
2 | 647-V (bladder, adherent) | 0.663 | 911 | 0.913 | > 20 | 0.981 | > 128 | 0.982 | > 20 | 0.845 | 7.28
3 | A427 (non-small cell lung carcinoma, adherent) | 0.489 | 298 | 0.887 | > 20 | 0.984 | > 128 | 0.982 | > 20 | 0.786 | 4.36
4 | A2058 (melanoma, adherent) | 0.704 | 1120 | 0.949 | > 20 | 0.99 | > 128 | 0.99 | > 20 | 0.989 | > 10
5 | AGS (stomach, adherent) | 0.673 | 915 | 0.93 | > 20 | 0.99 | > 128 | 0.973 | > 20 | 0.983 | > 10
6 | AU565 (breast, adherent) | 0.89 | > 5120 | 0.853 | 18.5 | 0.984 | > 128 | 0.948 | > 20 | 0.927 | > 10
7 | BICR31 (head and neck, adherent) | 0.683 | 1050 | 0.955 | > 20 | 0.987 | > 128 | 0.978 | > 20 | – | –
8 | C-4-I (cervix, adherent) | 0.949 | > 5120 | 0.902 | > 20 | 0.986 | > 128 | 0.975 | > 20 | 0.981 | > 10
9 | CAPAN-1 (pancreas, adherent) | 0.804 | 2900 | 0.938 | > 20 | 0.98 | > 128 | 0.918 | > 20 | 0.944 | > 10
10 | Caov-3 (ovary, adherent) | 0.978 | > 5120 | 0.918 | > 20 | 0.99 | > 128 | 0.884 | 17.1 | – | –
11 | DAN-G (pancreas, adherent) | 0.992 | > 5120 | 0.949 | > 20 | 0.991 | > 128 | 0.988 | > 20 | 0.973 | > 10
12 | DMS-273 (small cell lung carcinoma, adherent) | 0.7 | 1210 | 0.672 | 3.89 | 0.981 | > 128 | 0.857 | 17.7 | 0.931 | > 10
13 | EGI-1 (biliary tract, adherent) | 0.924 | > 5120 | 0.935 | > 20 | 0.982 | > 128 | 0.982 | > 20 | 0.971 | > 10
14 | FADU (head and neck, adherent) | 0.861 | 4070 | 0.927 | > 20 | 0.988 | > 128 | 0.98 | > 20 | 0.879 | 9.58
15 | FU-OV-1 (ovary, adherent) | 0.626 | 794 | 0.895 | > 20 | 0.974 | > 128 | 0.804 | 13.9 | 0.934 | > 10
16 | GMS-10 (glioma, adherent) | 0.841 | 3500 | 0.987 | > 20 | 0.987 | > 128 | 0.974 | > 20 | 0.964 | > 10
17 | HCE-4 (oesophagus, adherent) | 0.804 | 2140 | 0.992 | > 20 | 0.992 | > 128 | 0.989 | > 20 | 0.986 | > 10
18 | HCT-116 (large intestine, adherent) | 0.63 | 716 | 0.88 | 19 | 0.979 | > 128 | 0.897 | > 20 | 0.94 | > 10
19 | HEL (acute myeloid leukaemia, semi-adherent) | 0.786 | 1820 | 0.898 | 17.5 | 0.992 | > 128 | 0.559 | 1.76 | 0.992 | > 10
20 | HPAC (pancreas, adherent) | 0.819 | 4610 | 0.912 | > 20 | 0.979 | > 128 | 0.9 | > 20 | 0.906 | > 10
21 | HT55 (large intestine, adherent) | 0.986 | > 5120 | 0.967 | > 20 | 0.99 | > 128 | 0.986 | > 20 | 0.99 | > 10
22 | HT-29 (large intestine, adherent) | 0.786 | 2210 | 0.842 | 14.1 | 0.986 | > 128 | 0.891 | > 20 | 0.985 | > 10
23 | Hs939-T (melanoma, adherent) | 0.801 | 2770 | 0.893 | > 20 | 0.986 | > 128 | 0.983 | > 20 | 0.986 | > 10
24 | HuCCT1 (biliary tract, adherent) | 0.686 | 1130 | 0.835 | 15.3 | 0.966 | > 128 | 0.982 | > 20 | 0.761 | 3.93
25 | HuP-T4 (pancreas, adherent) | 0.885 | > 5120 | 0.917 | > 20 | 0.982 | > 128 | 0.826 | 13.1 | 0.984 | > 10
26 | IGR-1 (melanoma, adherent) | 0.652 | 797 | 0.842 | 11.6 | 0.985 | > 128 | 0.925 | > 20 | 0.968 | > 10

Row | Cell Line | AUC [1] | IC50 [1] [nM] | AUC [2] | IC50 [2] [µM] | AUC [3] | IC50 [3] [nM] | AUC [4] | IC50 [4] [µM] | AUC [5] | IC50 [5] [µM]
27 | IM-95 (stomach, adherent) | 0.644 | 822 | 0.783 | 9.01 | 0.98 | > 128 | 0.858 | 18.2 | 0.943 | > 10
28 | JHU-011 (head and neck, adherent) | 0.665 | 913 | 0.892 | > 20 | 0.985 | > 128 | 0.896 | > 20 | 0.969 | > 10
29 | KMRC-1 (kidney, adherent) | 0.851 | 4290 | 0.902 | > 20 | 0.987 | > 128 | 0.931 | > 20 | 0.952 | > 10
30 | KMS-12-BM (myeloma, suspension) | 0.794 | 1910 | 0.863 | 12.6 | 0.988 | > 128 | 0.363 | 0.562 | 0.94 | > 10
31 | KYSE-140 (oesophagus, adherent) | 0.606 | 650 | 0.818 | 13.3 | 0.977 | > 128 | 0.983 | > 20 | 0.929 | > 10
32 | KYSE-410 (oesophagus, adherent) | 0.571 | 509 | 0.944 | > 20 | 0.976 | > 128 | 0.939 | > 20 | 0.979 | > 10
33 | KYSE-520 (oesophagus, adherent) | 0.653 | 989 | 0.896 | > 20 | 0.978 | > 128 | 0.978 | > 20 | 0.914 | > 10
34 | LU-65 (large cell lung carcinoma, suspension) | 0.942 | > 5120 | 0.889 | > 20 | 0.983 | > 128 | 0.927 | > 20 | 0.927 | > 10
35 | MG-63 (osteosarcoma, adherent) | 0.622 | 735 | 0.98 | > 20 | 0.984 | > 128 | 0.98 | > 20 | 0.904 | > 10
36 | MKN1 (stomach, adherent) | 0.73 | 1500 | 0.926 | > 20 | 0.983 | > 128 | 0.885 | > 20 | 0.979 | > 10
37 | MKN28 (stomach, adherent) | 0.724 | 1400 | 0.876 | > 20 | 0.983 | > 128 | 0.971 | > 20 | 0.942 | > 10
38 | NCI-H1734 (lung adenocarcinoma, adherent) | 0.714 | 1390 | 0.946 | > 20 | 0.981 | > 128 | 0.973 | > 20 | 0.985 | > 10
39 | NCI-H2030 (lung adenocarcinoma, adherent) | 0.561 | 483 | 0.886 | > 20 | 0.977 | > 128 | 0.943 | > 20 | 0.909 | > 10
40 | NCI-H2052 (mesothelioma, adherent) | 0.701 | 1400 | 0.968 | > 20 | 0.972 | > 128 | 0.931 | > 20 | 0.965 | > 10
41 | NCI-H2228 (lung adenocarcinoma, adherent) | 0.731 | 2090 | 0.886 | > 20 | 0.953 | > 128 | 0.955 | > 20 | – | –
42 | PA-1 (ovary, adherent) | 0.606 | 584 | 0.786 | 6.69 | 0.986 | > 128 | 0.772 | 6.11 | 0.981 | > 10
43 | PANC-04-03 (pancreas, adherent) | 0.874 | > 5120 | 0.943 | > 20 | 0.966 | > 128 | 0.966 | > 20 | 0.906 | > 10
44 | PFSK-1 (medulloblastoma, adherent) | 0.953 | > 5120 | 0.916 | > 20 | 0.985 | > 128 | 0.984 | > 20 | – | –
45 | RPMI-7951 (melanoma, adherent) | 0.812 | 2630 | 0.913 | > 20 | 0.984 | > 128 | 0.947 | > 20 | 0.976 | > 10
46 | SISO (cervix, adherent) | 0.865 | 4210 | 0.934 | > 20 | 0.976 | > 128 | 0.889 | > 20 | 0.984 | > 10
47 | SK-MEL-24 (melanoma, adherent) | 0.542 | 427 | 0.78 | 10.1 | 0.983 | > 128 | 0.884 | > 20 | 0.973 | > 10
48 | SNU-475 (liver, adherent) | 0.953 | > 5120 | 0.882 | 17 | 0.972 | > 128 | 0.962 | > 20 | – | –
49 | SW780 (bladder, adherent) | 0.573 | 517 | 0.982 | > 20 | 0.986 | > 128 | 0.985 | > 20 | 0.97 | > 10
50 | T-24 (bladder, adherent) | 0.92 | > 5120 | 0.898 | > 20 | 0.986 | > 128 | 0.957 | > 20 | 0.969 | > 10
51 | THP-1 (acute myeloid leukaemia, suspension) | 0.878 | 4310 | 0.843 | 12.1 | – | – | 0.85 | 12.9 | 0.935 | > 10
52 | VMRC-RCW (kidney, adherent) | 0.767 | 1770 | 0.947 | > 20 | 0.989 | > 128 | 0.982 | > 20 | – | –

Lines with a small IC50 respond at low doses; a limit (>, <) means that the fit lies beyond the doses tested. AUC is the area under the same curve over the 256-fold range up to the top dose, as a fraction; it is 1 without any effect and falls as sensitivity rises. An inferred top dose was derived from the fitted curves, not read from the paper.
